28 compounds from PubChem BioAssay AID1508642 (National Center for Advancing Translational Sciences (NCATS), 2021) can be followed below.

Screen size: about 43,000 compounds; about 200 (0.47%) were called active. About 12% were inconclusive and are not listed. Calls come from the whole dose curve; as a rule, active = well fitted cell-killing curve with a large enough effect; inconclusive = small, poorly fitted or top-dose-only effect, or effect the other way; inactive = flat fitted curve, though single readings scatter. This is one part of the list.
% is set by controls: 0 for no effect and ±100 for the full control effect.

The nature of the assay: Cell viability qHTS assay in S16 Pmp22-F2sN cells. Note: nearly all actives have a fitted effect of over 65% in size. The note with it: S16 Pmp22-F2sN Schwann cells (luciferase reporters placed in the Pmp22 gene) viability, CellTiter-Glo, 24 h; series mostly up to 57.5 µM; activity change, negative = cytotoxicity: at the top concentration. Put shortly:
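Rat S16 Schwann reporter line, 24 h treatment with library compounds delivered at 23 nL per well. Cell viability by CellTiter-Glo luminescence.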
(In qHTS, concentration-response curves come from the screen itself.)
As to `CC(C)Oc1ccc(CNC(=O)CCCn2c(=O)c3cccn3c3cccnc32)cc1`, the “activity change, negative = cytotoxicity” value was inactive: -14.7%. For `O=C(NCc1ccc2c(c1)CCN2C(=O)c1ccncc1)c1ccc(Cl)cc1` the value was inactive: 1.62%; for `Cc1ccc2c(=O)c(C(=O)c3ccccc3)cn(CC(=O)Nc3ccccc3)c2n1`, inactive: -23.8%. The same measure for `CCn1c(NCc2cccc(Cl)c2)nc2ccccc21`: inactive: 6.28%; for `COc1cc(-c2nc3ccc(C)cn3c2Nc2ccc(Cl)cc2)ccc1O`: inactive: 3.44%; for `O=C(CSc1nc(-c2ccccc2)cn1-c1ccccc1)Nc1ccccc1`: inactive: -7.88%. Regarding `COc1cccc(C(=O)NC2=NC(c3ccc(N(C)C)cc3)CC(=O)N2)c1` (stereo not drawn), the “activity change, negative = cytotoxicity” value is inactive: 18.8%. As for `Cc1cccc(N2CCN(c3ccc(C(=O)O)cc3NC(=O)c3ccccc3F)CC2C)c1` (stereo not drawn), the “activity change, negative = cytotoxicity” value is inactive: -4.32%. For `Cn1c(=O)n(CCc2ccccc2)c(=O)c2c1nc1n2CCN1c1ccc(Cl)cc1` the value was inactive: 12.9%.

With `CCCCC(=O)Nc1ccc(C(=O)OCc2cc(=O)n3nc(C4CC4)sc3n2)cc1`, the “activity change, negative = cytotoxicity” value was inactive: -3.46%. For `COC(=O)C1=C(c2ccccc2)c2ccccc2S(=O)(=O)N1CC(=O)Nc1ccccc1C(F)(F)F` the value was inactive: 10.4%; for `COc1ccc(S(=O)(=O)Cc2ccc(C(=O)NC3CCCCC3)o2)cc1`, inactive: -5.77%. Turning to `CC(C)CC(=O)Nc1c(C(=O)N2CCN(c3ccccc3F)CC2)oc2ccccc12`, the “activity change, negative = cytotoxicity” value is inactive: 1.97%. For `Cc1cc(C)c2c(-n3cccc3)c(C(=O)NCCc3ccccc3)sc2n1`, the “activity change, negative = cytotoxicity” value was inactive: 11.6%. For `CCN(CC)c1ccc(C(=O)NCc2ccc3c(c2)CCN3C(C)=O)cc1` the value was inactive: 9.53%; for `CC(=O)c1ccc(N2CCN(C(=O)Nc3cccc(F)c3)CC2)cc1`, inactive: -23%.

As to `CC(C(=O)Nc1ccccc1C(F)(F)F)n1nc(-c2ccccc2)c2c(c1=O)CCCC2` (stereo not drawn), the “activity change, negative = cytotoxicity” value was inactive: -4.67%.

Turning to `Clc1ccc(CSc2nc3ncccc3[nH]2)cc1`, the “activity change, negative = cytotoxicity” value is inactive: -3.96%. For `CCCc1ccc(NC(=O)C2CCN(c3cnccn3)CC2)cc1` the value was inactive: -3.06%. The same measure for `O=C(Nc1nonc1-c1ccc(Br)cc1)c1ccco1`: inactive: -4.02%; for `COc1cccc(Cn2cc(S(=O)(=O)c3ccc(C)cc3)c(=O)c3cc4c(cc32)OCO4)c1`: inactive: -11%. The same measure for `COc1ccc(NC(=O)c2ccco2)cc1NC(=O)COc1ccc(C)cc1C`: inactive: 0.275%; for `CSc1cccc(NC(=O)Cn2nnc(C(=O)NCCc3ccccc3)c2N)c1`: inactive: 0.698%; for `Cc1ccc(-c2nc3c4ccccc4n(Cc4cccc(Cl)c4)c(=O)n3n2)cc1`: inactive: 4.87%. For the compound `COc1ccc(OC)c(CNC(=O)C2COc3ccccc3C2)c1` (stereo not drawn), the “activity change, negative = cytotoxicity” value is inactive: 2.9%. With `COc1ccc2nc(N3CCN(C(=O)c4ccco4)CC3)sc2c1`, the “activity change, negative = cytotoxicity” value was inactive: 3.33%. The same measure for `CCOC(=O)Cc1ccc(NC(=O)N2CC(CC)Oc3ccccc32)cc1` (stereo not drawn): inactive: 14.2%. Consider `CCN1CCN(CCCNC(=O)Cn2nc(C)n3c(cc4cc(C)ccc43)c2=O)CC1`, for which the “activity change, negative = cytotoxicity” value is inactive: 12.4%.
